# Source: paper PMC4336329 (PLoS ONE, 2015)
# The whole screen tested about 310,000 compounds, of which about 2,200 (0.71%) showed an effect of 50% or more. Effects have a minus sign here. The list shows a part of the results.
# Biological target: human ether-à-go-go-related gene (hERG) potassium channel (human, UniProt Q12809)
# Assay: primary screen, population patch clamp on CHO cells stably expressing hERG
# Sequence of human ether-à-go-go-related gene (hERG) potassium channel (Q12809 whole entry, looked up): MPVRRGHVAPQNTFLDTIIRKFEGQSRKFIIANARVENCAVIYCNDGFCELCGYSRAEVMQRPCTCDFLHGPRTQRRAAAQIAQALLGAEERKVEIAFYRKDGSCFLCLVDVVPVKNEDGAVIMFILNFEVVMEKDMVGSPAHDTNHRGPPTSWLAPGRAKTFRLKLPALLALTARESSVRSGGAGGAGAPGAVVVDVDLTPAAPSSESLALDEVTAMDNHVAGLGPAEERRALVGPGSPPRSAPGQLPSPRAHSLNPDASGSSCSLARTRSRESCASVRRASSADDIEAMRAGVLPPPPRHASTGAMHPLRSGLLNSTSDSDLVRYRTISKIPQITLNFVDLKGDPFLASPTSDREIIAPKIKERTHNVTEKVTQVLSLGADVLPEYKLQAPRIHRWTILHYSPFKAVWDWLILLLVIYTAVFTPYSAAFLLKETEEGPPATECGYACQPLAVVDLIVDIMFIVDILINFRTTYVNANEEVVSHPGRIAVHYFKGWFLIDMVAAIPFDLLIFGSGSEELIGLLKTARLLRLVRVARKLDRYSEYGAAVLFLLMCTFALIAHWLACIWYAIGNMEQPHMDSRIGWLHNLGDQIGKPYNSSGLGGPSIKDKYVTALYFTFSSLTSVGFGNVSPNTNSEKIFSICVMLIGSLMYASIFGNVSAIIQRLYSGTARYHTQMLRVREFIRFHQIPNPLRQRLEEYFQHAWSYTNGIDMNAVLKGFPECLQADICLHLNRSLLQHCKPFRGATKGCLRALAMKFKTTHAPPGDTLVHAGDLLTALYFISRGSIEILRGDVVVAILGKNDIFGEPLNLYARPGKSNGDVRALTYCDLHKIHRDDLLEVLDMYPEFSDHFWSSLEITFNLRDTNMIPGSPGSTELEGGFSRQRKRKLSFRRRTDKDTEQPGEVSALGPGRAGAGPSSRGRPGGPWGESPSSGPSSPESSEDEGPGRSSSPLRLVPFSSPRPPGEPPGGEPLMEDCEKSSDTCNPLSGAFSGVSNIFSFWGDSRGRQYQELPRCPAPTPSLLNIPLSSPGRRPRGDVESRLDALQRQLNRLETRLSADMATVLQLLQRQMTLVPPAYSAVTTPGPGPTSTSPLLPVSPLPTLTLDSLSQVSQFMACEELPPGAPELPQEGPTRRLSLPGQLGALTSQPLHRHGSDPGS
row,Compound,"hERG current change (%, negative = inhibition) at 1uM [%]"
1,COc1cccc(-n2c(C)nn(C)c2=O)c1,6.95
2,CCCCn1c(N)c(N(CCOC)C(=O)c2cc(S(=O)(=O)N3CCOCC3)ccc2F)c(=O)[nH]c1=O,9.13
3,O=C(Nc1ccc(Cl)cn1)Nc1ccccc1F,0.928
4,Nc1c(-c2ccccc2)nnn1Cc1ccccc1,12.2
5,Cc1ccc(OCC(=O)NNC(=O)c2ccc(-n3cncn3)c([N+](=O)[O-])c2)cc1,15.4
6,O=C(O)CCC(=O)Nc1ccccc1N1CCOCC1,6.2
7,CC(=O)N(C)c1cccc(-c2ccc3nnc(C)n3n2)c1,13.3
8,O=C(c1ccc(N2CCCC2=O)cc1)N1CCN(c2ccccc2F)CC1,14.8
9,Cc1cc(C)n(-c2nnc(SCC(=O)NC3CCCC3)c3ccccc23)n1,5.79
10,Cc1ccc(N(CC(=O)NCc2ccc(Cl)cc2)S(C)(=O)=O)cc1,11.5
11,COc1ccc(/C=N/c2c(-c3ccco3)nc3ccccn23)cc1OC,8
12,NC(=O)[C@H]1CC2(CC(c3cccc(NC(=O)[C@H]4CCC(=O)N4)c3)=NO2)CN1C(=O)c1ccccc1 (some centres unmarked),12.1
13,CCc1nnc(NC(=O)C2CSC3(C)CCC(=O)N23)s1 (centres unmarked),7.28
14,COc1ccc(NC(=O)CN(C)C(=O)CSc2nc3ccccc3s2)cc1,6.17
15,O=C(NCc1ccccc1Cl)C1CCC(CNc2c(N3CCOCC3)c(=O)c2=O)CC1 (centres unmarked),28.3
16,CCOC(=O)Cc1cc(-c2ccccc2)nc2ccc3ccccc3c12,22.6
17,O=C(O)/C=C/C(=O)NNc1ccc([N+](=O)[O-])cc1,9.55
18,CSc1ncc(Cl)c(C(=O)Nc2nnc(SC)s2)n1,9.79
19,O=C(N/N=C/c1ccccn1)c1ccc(S(=O)(=O)N2CCCCCC2)cc1,8.69
20,Cc1ccsc1/C=N\Nc1cn[nH]c(=O)c1Cl,15.5
21,Cc1cccc2c1CC(C)(C)N/C2=C\C(N)=O,3.56
22,CSCCOC(=O)COc1ccc(/C=N/NC(=O)c2c(Cl)cnn2C)cc1,6.26

row,Compound,"hERG current change (%, negative = inhibition) at 1uM [%]"
1,C=C[C@H](CC(C)C)N(Cc1ccccc1)S(=O)(=O)N(Cc1ccc(OC)cc1)[C@H](C=C)CC(C)C,8.02
2,COc1ccc(Nc2ccncc2[N+](=O)[O-])cc1,3.97
3,CCCCCN(C(=O)CCC(=O)OCc1cccc(C)c1)c1c(N)n(CCCC)c(=O)[nH]c1=O,7.24
4,CCN(CC)c1ccc(S(=O)(=O)N2CCOCC2)cc1NC(=O)CSc1cccc[n+]1[O-],6.8
5,CCOC(=O)N1CCC(NC(=O)CC2C(=O)NCCN2Cc2ccccc2)CC1 (centres unmarked),3.07
6,COc1ccc(CNC(=O)CCCn2ncn3c(cc4occc43)c2=O)cc1,4.81
7,CCCCNc1c(-c2ccc(SC(C)CC)c(OC)c2)nc2ccc(C)cn12.O=C(O)C(F)(F)F (centres unmarked),7.82
8,CCN(CC)CCC(=O)N1c2ccccc2CCc2ccc(NC(=O)OC)cc21.Cl,4.03
9,O=C(O)CCC(=O)Nc1ccc(-c2nc3ccc(C(=O)c4ccccc4)cc3[nH]2)cc1,15
10,CCN1C(=O)C(O)(CC(=O)c2cccc(-n3cccc3)c2)c2ccccc21 (centres unmarked),6.22
11,CSCC(C)N1CCC(CO)(CCCc2ccccc2)CC1 (centres unmarked),-11.2
12,COc1cc(-c2n[nH]c(=S)n2-c2ccccc2C(F)(F)F)cc(OC)c1OC,9.36
13,CCCN1C(=O)SC(CC(=O)Nc2cccc3ccccc23)C1=O (centres unmarked),13.7
14,CC(C(=O)N1CCc2ccccc21)N(C)CC(=O)Nc1ccccc1Cl (centres unmarked),-5.44
15,CN=C1CN(O)C(c2ccccc2)=c2cc(Cl)ccc2=N1,17.4
16,CC(C)CN1C(=O)c2ccc(NC(=O)C3CC3)cc2C1=O,-6.71
17,CCCCNS(=O)(=O)c1ccc2nc(SCC(=O)Nc3cc(C)cc(C)c3)[nH]c2c1,13.2
18,Cc1ccc(-n2nc(C)c(C(=O)O)n2)c(C)c1,-4.18
19,CCC(C)(C)n1nnnc1CN1CCC(NC(=O)c2ccc(Br)cc2)CC1,-4.98
20,CCOc1cc(/C=N/NC(=O)c2ccc(=O)n(C)c2)ccc1O,8.84
21,CC(=O)c1cccc(N(CC(=O)NC2CCCC2)C(=O)c2csnn2)c1,14.5
22,Cc1c(C(=O)NC(C)C)sc2ncn(CC(=O)N3CCC(C)CC3)c(=O)c12,4.94

row,Compound,"hERG current change (%, negative = inhibition) at 1uM [%]"
1,CN(c1ccccc1)S(=O)(=O)c1cccc(NC(=O)c2ccc(=O)[nH]c2)c1,1.56
2,COc1ccc(CNC(=O)c2ccccc2SCC(=O)NCc2ccco2)cc1,-0.751
3,O=C(CCOc1ccccc1)Nc1cccc([N+](=O)[O-])c1,1.19
4,COc1ccc2c(C)cc(SCC(=O)c3ccc4c(c3)OCO4)nc2c1,-2.85
5,O=C(CN1C(=O)NC2(CCCC2)C1=O)N1CCc2ccccc2C1,14.4
6,COc1ccc(O)c(CN2CCCC(N3CCN(c4ccc(F)cc4)CC3)C2)c1 (centres unmarked),-12.5
7,Cc1ccc(-c2ccc(SCC(=O)NCC3CCCO3)nn2)cc1 (centres unmarked),6.79
8,CCOC(=O)c1c(-c2ccccc2)oc2ccc(OCC(O)CN(C)C)cc12 (centres unmarked),11.2
9,O=C(Nc1ccccc1)OCc1cncs1,15.4
10,CCN1CCN(Cc2c(O)ccc3c2O/C(=C\c2ccccc2)C3=O)CC1,8.87
11,O=C(CN1C(=O)NC2(CCCCC2)C1=O)N1CCN(c2ncccn2)CC1,8.16
12,COC(=O)c1ccc(NC(=O)c2ccc3nsnc3c2)cc1,11.7
13,O=C(NC(=S)Nc1ccc(S(=O)(=O)Nc2nccs2)cc1)c1ccc(F)c(F)c1,11.5
14,c1ccc(Cn2cc(-c3cccnc3)cn2)cc1,10.4
15,Cn1c(-c2ccc(F)cc2)cnc1NCc1cccc([N+](=O)[O-])c1,-8.52
16,CCN1CCN(c2ccc(S(=O)(=O)N3CCCCC3)cc2NC(=O)c2cccc(C(F)(F)F)c2)CC1,-0.449
17,COc1cc(NS(=O)(=O)c2ccc(NC(=S)NC(=O)c3sc4cc(F)ccc4c3Cl)cc2)nc(OC)n1,11.1
18,CC(=O)C(C)n1c(CN2CCN(C(=O)c3ccco3)CC2)nc2c1c(=O)n(C)c(=O)n2C (centres unmarked),16.2
19,N#Cc1cncc(-c2ccc3c(c2)OCCOCCOCCOCCOCCO3)n1,-95.2
20,O=C(O)C(=O)O.O=[N+]([O-])c1ccccc1CNCCc1c[nH]c2ccccc12,1.33
21,Clc1ccc(OCCCN2CCCCC2)c(Br)c1.O=C(O)C(=O)O,-38.6
22,COc1cccc(C(=O)O[C@H]2[C@H](C)NS(=O)(=O)[C@H]3C[C@@H]4C=C[C@]23O4)c1,17.9

row,Compound,"hERG current change (%, negative = inhibition) at 1uM [%]"
1,CCOC(=O)c1cnn(-c2ccc(NS(=O)(=O)c3ccc(Cl)cc3)cc2)c1C(F)(F)F,8.18
2,O=C(CS(=O)(=O)c1ccc(Cl)cc1)NCc1ccccc1,13.6
3,COc1cccc(C(=O)N(Cc2cc3cc(C)ccc3[nH]c2=O)CC2CCCO2)c1 (centres unmarked),4.75
4,O=C(NN1CCOCC1)c1ccc(F)cc1,2.68
5,Cc1nc2ccccn2c1C(=O)NC1CCCc2ccccc21 (centres unmarked),-2.74
6,CCCS(=O)(=O)c1nc(S(=O)(=O)c2ccc(C)cc2)c(NCc2ccc3c(c2)OCO3)s1,13.2
7,CC(C)Cc1nc(N2CCN(C(=O)c3ccco3)CC2)c(C#N)c2c1CCCC2,5.31
8,COc1ccc(NC(=O)CN(c2ccc([N+](=O)[O-])cc2)S(=O)(=O)c2ccccc2)c(OC)c1,6.08
9,Cc1[nH]c2c(C)cccc2c1CCNS(=O)(=O)c1cccc([N+](=O)[O-])c1,9.73
10,CC(C)(C)Cc1nnc(NC(=O)CCc2ccccc2)s1,8.6
11,COc1ccc(C(C(=O)NC(C)(C)C)N(C(=O)CCC(=O)Nc2ccccn2)C2CCCCC2)cc1 (centres unmarked),2.87
12,CCN(CC(=O)Nc1ccc2c(c1)OCO2)Cc1nc2ccccc2c(=O)[nH]1,-1.67
13,O=C(O)CSc1nc2ccc(C(=O)c3ccccc3)cc2[nH]1,17.1
14,O=C(c1ccc(Cl)cc1)N1CCC(O)(CSc2ccc(Cl)cc2Cl)CC1,9.88
15,CCCc1nc2ccc(NC(=O)c3cccs3)cc2c(=O)n1Cc1ccc(Cl)cc1,0.572
16,COC(=O)c1ccc(N2C(=O)C3C4C=CC(CC4)C3C2=O)cc1 (centres unmarked),16.7
17,O=C(NCc1ccco1)C(=S)N1CCCCC1,7.66
18,CN(C)CCO[C@@H](c1ccc(Cl)cc1)c1ccccn1.O=C(O)/C=C\C(=O)O,7.74
19,O=C(Cc1cccs1)N/N=C/C=C\c1ccco1,11.8
20,O=C(NCc1ccccc1Cl)c1cccc(OC2CCN(C(=O)C3CC3)CC2)c1,5.54
